Some of the results follow. The list includes weakly bound sequences.

The experiment has as its target T1, MBP-FoxP3dN (UniProt Q99JB6).
T1 sequence: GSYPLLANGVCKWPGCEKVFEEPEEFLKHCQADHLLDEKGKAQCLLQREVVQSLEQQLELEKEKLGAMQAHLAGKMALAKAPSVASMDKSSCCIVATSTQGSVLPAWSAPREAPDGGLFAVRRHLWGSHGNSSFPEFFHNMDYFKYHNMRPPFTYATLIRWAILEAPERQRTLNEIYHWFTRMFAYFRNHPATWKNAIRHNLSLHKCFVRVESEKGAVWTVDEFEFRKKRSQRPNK
As to the kind of experiment: PD-seq (MBP pull-down with sequencing). Particulars: 20 mM Tris-HCl pH 7.5, 100 mM NaCl, 1.5 mM MgCl2, 0.4 uM protein, 0.1 uM dsDNA library, 30 min, room temperature, amylose pull-down; high values mean tight binding; double strand, one strand shown.
For the sequence “GATGATTGTTCTCCCAGCTGATGAATTCGAATAGTCGAGTAAACAAATTTTCCTAATCTTTCTGTTCAAGCGCCATCTAC”, the binding signal (RPM ratio (pull-down/input)) was found to be 0.369.
The result for “GATGATTGTTCTCCCAGCTGATGAATTCTTCTGTTCGAGTAAACAAATTTTCCTAATCTTTCTGTTCAAGCGCCATCTAC” reads 0.31; that for “GATGATTGTTCTCCCAGCTGATGAATTTTAACATTCGAGTAAACAAATTTTCCTAATCTTTCTGTTCAAGCGCCATCTAC”, 0.699; that for “GATGATTGTTCTCCCAGCTGATGAATTCCCTAAGTCGAGTAAACAAATTTTCCTAATCTTTCTGTTCAAGCGCCATCTAC”, 0.178.
As to “GATGATTGTTCTCCCAGCTGATGAATTTACTTACTCGAGTAAACAAATTTTCCTAATCTTTCTGTTCAAGCGCCATCTAC”, the binding signal (RPM ratio (pull-down/input)) stood at 2.83.
Take “GATGATTGTTCTCCCAGCTGATGAATTATCCCGCTCGAGTAAACAAATTTTCCTAATCTTTCTGTTCAAGCGCCATCTAC”: the binding signal (RPM ratio (pull-down/input)) is 0.212.
For “GATGATTGTTCTCCCAGCTGATGAATTGTGACACTCGAGTAAACAAATTTTCCTAATCTTTCTGTTCAAGCGCCATCTAC”, the binding signal (RPM ratio (pull-down/input)) came out at 3.18.
“GATGATTGTTCTCCCAGCTGATGAATTTTTTGGGTCGAGTAAACAAATTTTCCTAATCTTTCTGTTCAAGCGCCATCTAC”: the binding signal (RPM ratio (pull-down/input)) amounted to 0.193.
In the case of “GATGATTGTTCTCCCAGCTGATGAATTAACGGGCTCGAGTAAACAAATTTTCCTAATCTTTCTGTTCAAGCGCCATCTAC”, the binding signal (RPM ratio (pull-down/input)) came to 0.226.
Consider “GATGATTGTTCTCCCAGCTGATGAATTACCAAAGTCGAGTAAACAAATTTTCCTAATCTTTCTGTTCAAGCGCCATCTAC”, for which the binding signal (RPM ratio (pull-down/input)) is 0.212.
With “GATGATTGTTCTCCCAGCTGATGAATTGTTAGGATCGAGTAAACAAATTTTCCTAATCTTTCTGTTCAAGCGCCATCTAC”, the binding signal (RPM ratio (pull-down/input)) amounted to 1.02.
“GATGATTGTTCTCCCAGCTGATGAATTAAAGCCTTCGAGTAAACAAATTTTCCTAATCTTTCTGTTCAAGCGCCATCTAC”: the binding signal (RPM ratio (pull-down/input)) was determined as 1.74.
Regarding “GATGATTGTTCTCCCAGCTGATGAATTACGCCTCTCGAGTAAACAAATTTTCCTAATCTTTCTGTTCAAGCGCCATCTAC”, the binding signal (RPM ratio (pull-down/input)) is 5.99.
For “GATGATTGTTCTCCCAGCTGATGAATTTGATATCTCGAGTAAACAAATTTTCCTAATCTTTCTGTTCAAGCGCCATCTAC”, the binding signal (RPM ratio (pull-down/input)) was found to be 3.49.
As for “GATGATTGTTCTCCCAGCTGATGAATTGGCTTCTTCGAGTAAACAAATTTTCCTAATCTTTCTGTTCAAGCGCCATCTAC”, the binding signal (RPM ratio (pull-down/input)) stood at 0.562.
Turning to “GATGATTGTTCTCCCAGCTGATGAATTGATATGTTCGAGTAAACAAATTTTCCTAATCTTTCTGTTCAAGCGCCATCTAC”, the binding signal (RPM ratio (pull-down/input)) is 1.34.
With “GATGATTGTTCTCCCAGCTGATGAATTGGGCTGTTCGAGTAAACAAATTTTCCTAATCTTTCTGTTCAAGCGCCATCTAC”, the binding signal (RPM ratio (pull-down/input)) came out at 0.719.
With “GATGATTGTTCTCCCAGCTGATGAATTCTGCGAATCGAGTAAACAAATTTTCCTAATCTTTCTGTTCAAGCGCCATCTAC”, the binding signal (RPM ratio (pull-down/input)) came out at 0.31.
Regarding “GATGATTGTTCTCCCAGCTGATGAATTCGCGTCGTCGAGTAAACAAATTTTCCTAATCTTTCTGTTCAAGCGCCATCTAC”, the binding signal (RPM ratio (pull-down/input)) turned out to be 1.04.
For the sequence “GATGATTGTTCTCCCAGCTGATGAATTTCTTTGATCGAGTAAACAAATTTTCCTAATCTTTCTGTTCAAGCGCCATCTAC”, the binding signal (RPM ratio (pull-down/input)) came to 0.325.
For “GATGATTGTTCTCCCAGCTGATGAATTTTTATACTCGAGTAAACAAATTTTCCTAATCTTTCTGTTCAAGCGCCATCTAC”, the binding signal (RPM ratio (pull-down/input)) stood at 0.36.
As for “GATGATTGTTCTCCCAGCTGATGAATTGAGAATTTCGAGTAAACAAATTTTCCTAATCTTTCTGTTCAAGCGCCATCTAC”, the binding signal (RPM ratio (pull-down/input)) came to 1.13.
Next, “GATGATTGTTCTCCCAGCTGATGAATTTCCTACTTCGAGTAAACAAATTTTCCTAATCTTTCTGTTCAAGCGCCATCTAC”: 0.259; “GATGATTGTTCTCCCAGCTGATGAATTCAATCGATCGAGTAAACAAATTTTCCTAATCTTTCTGTTCAAGCGCCATCTAC”: 0.298.
As for “GATGATTGTTCTCCCAGCTGATGAATTTCTTTCTTCGAGTAAACAAATTTTCCTAATCTTTCTGTTCAAGCGCCATCTAC”, the binding signal (RPM ratio (pull-down/input)) amounted to 0.349.
With “GATGATTGTTCTCCCAGCTGATGAATTAAGACGGTCGAGTAAACAAATTTTCCTAATCTTTCTGTTCAAGCGCCATCTAC”, the binding signal (RPM ratio (pull-down/input)) was 0.236.
In the case of “GATGATTGTTCTCCCAGCTGATGAATTGGTTCAGTCGAGTAAACAAATTTTCCTAATCTTTCTGTTCAAGCGCCATCTAC”, the binding signal (RPM ratio (pull-down/input)) was determined as 0.288.
The result for “GATGATTGTTCTCCCAGCTGATGAATTTGGGGGTTCGAGTAAACAAATTTTCCTAATCTTTCTGTTCAAGCGCCATCTAC” reads 0.751; that for “GATGATTGTTCTCCCAGCTGATGAATTCCGATTTTCGAGTAAACAAATTTTCCTAATCTTTCTGTTCAAGCGCCATCTAC”, 0.861.
For the sequence “GATGATTGTTCTCCCAGCTGATGAATTGCTTGAGTCGAGTAAACAAATTTTCCTAATCTTTCTGTTCAAGCGCCATCTAC”, the binding signal (RPM ratio (pull-down/input)) stood at 0.46.
On to “GATGATTGTTCTCCCAGCTGATGAATTAACGAAATCGAGTAAACAAATTTTCCTAATCTTTCTGTTCAAGCGCCATCTAC”, for which the binding signal (RPM ratio (pull-down/input)) came out at 0.313.
For “GATGATTGTTCTCCCAGCTGATGAATTCAGCGATTCGAGTAAACAAATTTTCCTAATCTTTCTGTTCAAGCGCCATCTAC”, the binding signal (RPM ratio (pull-down/input)) came out at 0.973.

Source of the values: article PMC12820563.
